Data: PubChem BioAssay AID504832 (National Center for Advancing Translational Sciences (NCATS), 2011)
In all, about 310,000 compounds went through this assay and about 18,000 (5.8%) were called active. The shares of active, inactive and inconclusive entries below differ from those in the screen. Calls come from the whole dose curve; as a rule, active = well fitted inhibition curve with a large enough effect; inconclusive = small, poorly fitted or top-dose-only effect, or another doubt; inactive = no such curve, though single readings can be large or run the other way. No potency is given beside an inconclusive call; the fits are too rough.

Test: Primary qHTS for delayed death inhibitors of the malarial parasite plastid, 48 hour incubation
Conditions: P. falciparum luciferase growth in erythrocytes; series mostly up to 28.7 µM
Procedure, shortened: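 Cell-based growth assay: transgenic P. falciparum expressing firefly luciferase, cultured in red cells within RPMI 1640 containing 0.5% w/v Albumax, 24 mM bicarbonate and gentamycin. A drop in luciferase activity indicates inhibition.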
% is set by controls: 0 for no effect and ±100 for the full control effect; potency is the fitted concentration of half-maximal effect; tags give direction and shape of the fitted curve.

| SMILES | activity change, negative = inhibition | Potency |
| --- | --- | --- |
| COc1ccccc1Oc1ccc(N/C=C/C(=O)c2ccc(C)o2)cc1 | inactive: -7.26% [at 5.75 µM] |  |
| ClCC1=Nc2cccc3cccc(c23)N1 |  | active: 4.15 µM |
| N#CC(C#N)=C(N)/C(C#N)=C/c1cc(O)c(O)c(O)c1 |  | active: 11.7 µM |
| Cc1ccc(S(=O)(=O)Nc2ccc(NC(=O)c3cccnc3)cc2)cc1 |  | inconclusive [inhibitor, partial curve] |
| CCN(CC(=O)NCCc1ccc(Cl)cc1)Cc1nc2ccccc2c(=O)[nH]1 |  | inconclusive [inhibitor, single point] |
| Cc1ccc(N2C(=O)CSC2c2ccc3c(c2)OCO3)cc1 (centres undefined) |  | inactive |
| Cc1nc2ccc(NC(=O)N3CCSCC3)cc2s1 |  | inconclusive [inhibitor, single point] |
| CC(C)c1ccc(N(C(=O)c2ccc3c(c2)OCO3)C2C=CS(=O)(=O)C2)cc1 (centres undefined) |  | inactive |
| Cc1cccc(OCCSc2nc(N)cc(N)n2)c1 |  | inactive |
| Cc1nn(CC(=O)Nc2ccccc2C(F)(F)F)c(=O)c2cccn12 |  | inconclusive [inhibitor, single point] |
| O=C(NCCc1ccccc1)C1CCN(S(=O)(=O)c2ccc(-n3cnnn3)cc2)CC1 |  | inconclusive [inhibitor, partial curve] |
| Cc1cccc2c1c(N=NC(N)=S)c(O)n2C1OC(CO)C(O)C(O)C1O (centres undefined) |  | inactive |
| CCOC(=O)c1cnc2c(-c3ccc(F)cc3)cnn2c1C(F)(F)F |  | inconclusive [inhibitor, single point] |
| C#CCOCCOCCOCCNc1nc(N2CCN(C(=O)[C@H](Cc3ccc(O)cc3)n3cc([C@@H](N)C(C)CC)nn3)CC2)nc(N2CCN(C(=O)[C@H](Cc3cc4ccccc4[nH]3)n3cc([C@@H](N)C(C)CC)nn3)CC2)n1 (some centres undefined) |  | inconclusive [inhibitor, partial curve] |
| O=C(CNc1cccc([N+](=O)[O-])c1)N/N=C/c1ccc(F)cc1 |  | inconclusive [inhibitor, full curve, poor fit] |
| COCCNC(=O)NC(=O)COC(=O)c1cc([N+](=O)[O-])ccc1Sc1nc(C)cs1 |  | inactive |
| CS(=O)(=O)c1ccc2nc(NC(=O)c3ccccc3)sc2c1 |  | inactive |
| Cc1nn(Cc2c(Cl)cccc2Cl)c(C)c1NC(=O)CCCn1nc([N+](=O)[O-])c(Cl)c1C |  | inconclusive [inhibitor, single point] |
| COc1ccccc1C(=O)NCC(=O)NCCSc1ccc(Br)cc1 |  | inconclusive [inhibitor, single point] |
